Out of some 310,000 compounds screened, about 2,200 (0.71%) showed an effect of 50% or more. Effects have a minus sign here. This is one part of the list.
target: human ether-à-go-go-related gene (hERG) potassium channel (human, UniProt Q12809); test: primary screen, population patch clamp on CHO cells stably expressing hERG
Sequence (Q12809 whole entry, looked up): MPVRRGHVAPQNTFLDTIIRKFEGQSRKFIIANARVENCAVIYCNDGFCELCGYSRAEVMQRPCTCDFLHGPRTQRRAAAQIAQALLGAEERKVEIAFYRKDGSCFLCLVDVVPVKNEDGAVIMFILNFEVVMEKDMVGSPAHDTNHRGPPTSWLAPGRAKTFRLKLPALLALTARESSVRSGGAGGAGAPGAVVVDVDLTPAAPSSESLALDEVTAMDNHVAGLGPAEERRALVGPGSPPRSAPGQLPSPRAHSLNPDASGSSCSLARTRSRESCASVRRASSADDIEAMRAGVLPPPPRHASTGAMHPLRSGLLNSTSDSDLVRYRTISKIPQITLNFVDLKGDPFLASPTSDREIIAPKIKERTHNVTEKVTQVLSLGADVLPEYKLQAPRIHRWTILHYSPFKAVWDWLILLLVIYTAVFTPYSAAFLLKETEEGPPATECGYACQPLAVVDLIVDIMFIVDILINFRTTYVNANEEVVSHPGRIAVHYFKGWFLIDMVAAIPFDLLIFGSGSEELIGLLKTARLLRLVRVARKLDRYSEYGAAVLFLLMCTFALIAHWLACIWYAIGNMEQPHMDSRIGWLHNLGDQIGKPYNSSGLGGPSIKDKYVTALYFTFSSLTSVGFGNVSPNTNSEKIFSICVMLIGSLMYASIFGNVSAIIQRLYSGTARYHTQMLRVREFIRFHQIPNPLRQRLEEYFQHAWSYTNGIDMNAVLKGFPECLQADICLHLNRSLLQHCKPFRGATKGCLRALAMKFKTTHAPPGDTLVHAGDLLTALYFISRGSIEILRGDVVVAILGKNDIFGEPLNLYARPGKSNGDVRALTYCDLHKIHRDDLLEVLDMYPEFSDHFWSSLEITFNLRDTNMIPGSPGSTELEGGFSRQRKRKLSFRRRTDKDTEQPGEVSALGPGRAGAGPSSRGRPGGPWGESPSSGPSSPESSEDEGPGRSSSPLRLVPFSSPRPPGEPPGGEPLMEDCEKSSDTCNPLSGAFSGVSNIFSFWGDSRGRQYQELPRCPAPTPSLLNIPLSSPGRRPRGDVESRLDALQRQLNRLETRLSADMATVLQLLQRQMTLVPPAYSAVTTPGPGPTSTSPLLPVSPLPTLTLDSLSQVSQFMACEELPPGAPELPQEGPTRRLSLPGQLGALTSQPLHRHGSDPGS

Row | SMILES | hERG current change (%, negative = inhibition) at 1uM [%]
1 | COc1ccc(CNC(=O)C[C@H]2C(=O)N(Cc3ccccc3)C[C@@H]2Cc2ccccc2)cc1 | 10.1
2 | O=C(CNC(=O)c1ccc2c(c1)OCO2)N/N=C/c1cccc([N+](=O)[O-])c1 | 7.12
3 | COC(=O)c1c(NC(=O)CCC(=O)O)sc2c1CCCCC2 | 7.59
4 | CCCOc1ccc(N2C(=O)CC(N3CCN(C(=O)c4ccco4)CC3)C2=O)cc1 (stereo not shown) | -2.69
5 | CCOc1ccc2nc(NC(=O)Cn3cnc4c3c(=O)n(C)c(=O)n4C)sc2c1 | -34.2
6 | O=C(CNC(=O)c1ccc(Cl)cc1)Nc1ccc(Br)cc1C(=O)c1ccccc1 | 3.47
7 | COc1ccc(N2CCN(C(=O)CSc3nnc(C)c(=O)[nH]3)CC2)cc1 | 3.37
8 | CCCCN(Cc1cc2cc(OC)ccc2[nH]c1=O)S(=O)(=O)c1ccc(C)cc1 | 7.56
9 | Cc1ccc2c(c1)sc1nc(=O)ccn12 | 2.41
10 | CC(C)NS(=O)(=O)c1ccc(NC(=O)Cc2ccsc2)cc1 | 14.5
11 | O=C(CCc1ccc(Oc2cc([N+](=O)[O-])cc([N+](=O)[O-])c2)cc1)N1CCCCCC1 | 5.42
12 | CC(NC(=O)CSc1nc(=O)cc(N)n1CCc1ccccc1)c1ccccc1 (stereo not shown) | -2.29
13 | Cc1nc(Nc2ccc(Cl)cc2)c2nnn(Cc3ccccc3)c2n1 | 14.1
14 | O=C(CNS(=O)(=O)c1ccc(F)cc1)Nc1ccc(C(F)(F)F)cc1 | 9.35
15 | O=C(COc1cccc(C(F)(F)F)c1)Nc1ccccc1N1CCCCC1 | 7.09
16 | COc1cccc(CN2CC(C(=O)NCCOc3cccnc3)CCC2=O)c1 (stereo not shown) | 18.2
17 | COc1ccc(S(=O)(=O)N2CCC(C(=O)NCc3cccc(OC)c3)CC2)cc1 | 6.95
18 | CCOc1cc(NC(=S)NCCCN2CCOCC2)c(OCC)cc1NC(=O)c1ccc(OC)cc1 | 11.9
19 | CCOc1ccc(N2C(=O)CN(O)C=C3N=c4ccccc4=C32)cc1 | 5.94
20 | CC1CCCN(CCC(=O)c2ccc(Br)cc2)C1.Cl (stereo not shown) | -32.1
21 | CCN(CC)CCNC(=O)C1CCCCN1S(=O)(=O)c1cccc([N+](=O)[O-])c1 (stereo not shown) | 0.0258
22 | Cc1nc2ccc(NC(=O)c3ccc([N+](=O)[O-])cc3)cc2[nH]1 | 12.5
23 | O=c1nc(N2CCOCC2)nc(N/N=C/c2ccc3c(c2)OCO3)[nH]1 | 8.84
24 | CCOC(=O)/C=C/C(=O)N1CCN(C(=O)/C=C/C(=O)OCC)CC1 | 6.99
25 | CCOC(=O)CNC(=S)n1cnc(N)n1 | 12.2
26 | N#Cc1cc([N+](=O)[O-])ccc1Oc1ccc(-c2nnco2)cc1 | 10.5
27 | O=C(C/C=N/OCc1ccc(Cl)cc1)c1cnc(-c2ccccc2)s1 | 18
28 | CN(C)CCCN(C(=O)c1ccc(S(=O)(=O)N2CCc3ccccc3C2)cc1)c1nc2c(F)cccc2s1.Cl | 6.05

Row | SMILES | hERG current change (%, negative = inhibition) at 1uM [%]
29 | Cc1ccc2nc(Cc3ccc(N)cc3)oc2c1 | 8.08
30 | Cc1ccc2cc(CN(Cc3ccco3)C(=O)NCc3ccccc3)c(=O)[nH]c2c1C | 5.12
31 | COc1ccc(-c2nnc(SCc3ccccc3F)o2)cc1 | 6.32
32 | C/C(N)=C(/C#N)C(=O)COC(=O)C1CCC(C(C)(C)C)CC1 (stereo not shown) | 6.53
33 | COc1ccc(NC(=O)c2ccccc2Sc2ccc(NC(C)=O)nc2)cc1 | 11.1
34 | Cc1c(C(C)C)c(=O)n(-c2ccc(S(=O)(=O)NCc3ccccc3)cc2)n1C | 3.67
35 | CS(=O)(=O)Nc1ccc(Cc2noc(-c3ccc4[nH]cc(CCN)c4c3)n2)cc1.O | 18.4
36 | CCN(CC(=O)N1CCOCC1)S(=O)(=O)c1ccc(F)cc1 | 3.25
37 | CSc1nc(-c2cccs2)c(C#N)c(=O)[nH]1 | 6.78
38 | CCOc1cc(/C=C(\C#N)C(=O)Nc2ccc(S(N)(=O)=O)cc2)ccc1OCCN1CCOCC1 | 7.27
39 | O=C(O)c1cc2c(=O)c3ccccc3oc2nc1C(F)(F)F | 11.8
40 | CS(=O)(=O)N(CCc1ccccc1)CC(=O)Nc1ccccc1 | 13.3
41 | CCC1(CC)Nc2ccccc2C(=O)N1c1ccc(OC)cc1 | 14.4
42 | O=C(CC1C(=O)NCCN1Cc1ccccc1)NC1CCCCCC1 (stereo not shown) | 1.67
43 | Cc1cccc(NC(=O)CSc2nnc(-c3ccco3)n2CC2CCCO2)n1 (stereo not shown) | -0.807
44 | O=C(Nc1ccccc1)NC1CCN(Cc2c(F)cccc2Cl)CC1 | 22.3
45 | COc1cc2c(cc1OC)C(c1cccc(C)c1)CC(=O)N2 (stereo not shown) | 2.01
46 | O=C(Cc1ccc(S(=O)(=O)N2CCCC2)s1)N1CCN(c2ccc(F)cc2)CC1 | -6.63
47 | CCC1Sc2ccccc2N(CC(=O)NCc2ccc3c(c2)OCO3)C1=O (stereo not shown) | 2.97
48 | COc1cccc(C(=O)Nc2ccc(S(=O)(=O)Nc3cc(C)nc(C)n3)cc2)c1 | 3.65
49 | CC(C)CN1C=C2C(=O)C(C)(OC(=O)CCc3ccccc3)C(=O)C=C2C=C1c1ccc(C#N)cc1 (stereo not shown) | 7.93
50 | Cc1ccc(C)c(SCC(=O)NC(=O)NCc2ccccc2)c1 | 6.13
51 | CCc1noc(C)c1C(=O)OCC(=O)N1CCc2ccccc21 | 0.156
52 | COc1ccc(CCC(C)N2CCc3ccccc3C2)cc1 (stereo not shown) | -34.6
53 | COc1cc(/C=C/C(=O)NC(C)C2CC3CCC2C3)cc(OC)c1OC (stereo not shown) | 11.8
54 | COC(=O)c1ccc(NC(=O)C2C3C=CC(O3)C2C(=O)O)cc1 (stereo not shown) | 13.7
55 | CCOC(=O)C1=C(C)Nc2nc(SCC)nn2C1c1ccc(OC)cc1 (stereo not shown) | 16.1

Reference: paper PMC4336329 (PLoS ONE, 2015)
